Data published in PubChem BioAssay AID504333 (National Center for Advancing Translational Sciences (NCATS), 2011).
Screen size: about 360,000 compounds; about 16,000 (4.4%) were called active. The shares of active, inactive and inconclusive entries below differ from those in the screen. Calls come from the whole dose curve; as a rule, active = well fitted inhibition curve with a large enough effect; inconclusive = small, poorly fitted or top-dose-only effect; inactive = no such curve, though single readings can be large or run the other way. Potencies beside an inconclusive call are fits to weak or partial responses and may not hold up.

The molecules below were run against Bromodomain adjacent to zinc finger domain protein 2B (Homo sapiens) (UniProt Q9UIF8) (assay: qHTS Assay for Inhibitors of BAZ2B). Conditions: AlphaScreen BAZ2B-H3K14Ac peptide displacement; series mostly up to 114 µM.
In short: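 Protein-peptide AlphaScreen: BAZ2B 50 nM, b-H3K14Ac 50 nM, 1x PBS pH 7.4 + 0.01% Tween-20. Preincubation 30 min RT; cpd 30 min RT (top 110 uM); beads 20 min RT, light-protected.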
Note: nearly all actives have a fitted effect of over 60% in size.
Potency is the fitted concentration of half-maximal effect; tags give direction and shape of the fitted curve.

Sequence of UniProt Q9UIF8 (Q9UIF8 whole entry, looked up, the tested form may be a part): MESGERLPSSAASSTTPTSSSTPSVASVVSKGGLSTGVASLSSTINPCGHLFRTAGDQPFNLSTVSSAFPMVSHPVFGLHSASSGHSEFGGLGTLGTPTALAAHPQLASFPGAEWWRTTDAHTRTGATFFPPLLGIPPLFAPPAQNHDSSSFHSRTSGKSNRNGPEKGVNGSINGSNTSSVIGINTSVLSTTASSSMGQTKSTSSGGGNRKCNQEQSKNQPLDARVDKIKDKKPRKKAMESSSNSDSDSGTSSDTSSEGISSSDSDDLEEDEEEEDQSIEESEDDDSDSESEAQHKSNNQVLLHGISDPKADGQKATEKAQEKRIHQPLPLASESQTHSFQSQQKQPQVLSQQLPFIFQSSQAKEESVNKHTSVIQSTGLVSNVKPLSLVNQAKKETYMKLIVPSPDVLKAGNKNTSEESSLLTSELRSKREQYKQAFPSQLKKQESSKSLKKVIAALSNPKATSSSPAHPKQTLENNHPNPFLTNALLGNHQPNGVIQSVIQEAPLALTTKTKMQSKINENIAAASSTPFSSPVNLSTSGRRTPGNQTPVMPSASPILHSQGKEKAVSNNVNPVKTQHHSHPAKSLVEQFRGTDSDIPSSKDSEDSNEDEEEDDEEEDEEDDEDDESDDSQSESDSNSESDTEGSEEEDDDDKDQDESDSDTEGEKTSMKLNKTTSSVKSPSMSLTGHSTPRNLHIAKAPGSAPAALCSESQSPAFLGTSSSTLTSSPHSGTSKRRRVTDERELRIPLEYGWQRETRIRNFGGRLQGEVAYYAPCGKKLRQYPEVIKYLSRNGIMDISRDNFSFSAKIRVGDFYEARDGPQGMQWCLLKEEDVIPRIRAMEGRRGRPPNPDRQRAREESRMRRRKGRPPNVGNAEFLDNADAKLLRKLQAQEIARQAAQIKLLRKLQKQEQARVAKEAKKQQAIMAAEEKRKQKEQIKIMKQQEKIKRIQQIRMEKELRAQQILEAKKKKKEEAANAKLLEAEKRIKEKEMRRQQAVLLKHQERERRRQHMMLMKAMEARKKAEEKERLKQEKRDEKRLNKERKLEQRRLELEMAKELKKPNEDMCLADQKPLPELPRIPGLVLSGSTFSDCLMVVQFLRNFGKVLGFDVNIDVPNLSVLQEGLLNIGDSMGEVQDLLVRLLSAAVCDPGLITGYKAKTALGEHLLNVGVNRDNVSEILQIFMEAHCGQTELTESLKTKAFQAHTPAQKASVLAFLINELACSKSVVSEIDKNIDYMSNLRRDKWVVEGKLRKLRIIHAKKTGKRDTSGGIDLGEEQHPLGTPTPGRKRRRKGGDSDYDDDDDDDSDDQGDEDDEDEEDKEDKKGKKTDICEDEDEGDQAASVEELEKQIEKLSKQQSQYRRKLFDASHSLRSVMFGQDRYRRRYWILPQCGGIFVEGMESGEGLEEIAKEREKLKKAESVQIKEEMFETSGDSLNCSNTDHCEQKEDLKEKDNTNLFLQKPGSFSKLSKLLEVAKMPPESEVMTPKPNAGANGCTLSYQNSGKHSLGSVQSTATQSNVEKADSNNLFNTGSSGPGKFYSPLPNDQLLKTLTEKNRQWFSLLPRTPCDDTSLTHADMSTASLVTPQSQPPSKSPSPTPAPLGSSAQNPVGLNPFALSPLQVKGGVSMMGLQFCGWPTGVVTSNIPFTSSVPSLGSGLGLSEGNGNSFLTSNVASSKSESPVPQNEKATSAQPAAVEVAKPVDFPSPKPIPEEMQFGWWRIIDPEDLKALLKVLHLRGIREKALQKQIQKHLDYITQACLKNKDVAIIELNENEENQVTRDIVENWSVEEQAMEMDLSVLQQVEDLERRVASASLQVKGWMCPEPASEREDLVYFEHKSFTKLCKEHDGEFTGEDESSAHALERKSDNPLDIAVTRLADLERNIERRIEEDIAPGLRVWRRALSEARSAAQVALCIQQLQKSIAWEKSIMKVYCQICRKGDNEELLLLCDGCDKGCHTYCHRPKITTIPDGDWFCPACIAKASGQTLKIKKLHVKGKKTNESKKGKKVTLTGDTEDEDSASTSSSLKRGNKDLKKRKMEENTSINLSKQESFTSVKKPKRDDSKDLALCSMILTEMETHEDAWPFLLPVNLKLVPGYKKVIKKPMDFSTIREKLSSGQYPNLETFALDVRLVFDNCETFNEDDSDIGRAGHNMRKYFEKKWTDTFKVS

**Q.** For `COc1ccc(N2CCN(C3CC(=O)N(Cc4ccc(N5CCCC5=O)cc4)C3=O)CC2)cc1` (stereo not drawn), which Potency is on record?
**A.** inconclusive: 89.1 µM [inhibitor, single point]

**Q.** How did the Potency turn out when `C(=N\N1CCN(Cc2ccccc2)CC1)/c1cccs1` was run?
**A.** inconclusive: 50.1 µM [inhibitor, partial curve]

**Q.** With `O=C(NCc1cccc(Br)c1)C1CCCCN1S(=O)(=O)c1ccc(F)cc1` (stereo not drawn) as the molecule, how does the Potency read?
**A.** inactive

**Q.** How did the Potency turn out when `COc1ccccc1Nc1c([N+](=O)[O-])cncc1[N+](=O)[O-]` was run?
**A.** inconclusive: 50.1 µM [inhibitor, partial curve]

**Q.** How did the Potency turn out when `CCc1ccc(-c2n[nH]c(=O)c3ccccc23)cc1` was run?
**A.** inactive

**Q.** How did the Potency turn out when `C/C(NCCCn1ccnc1)=C(\C#N)C(N)=O` was run?
**A.** inconclusive: 89.1 µM [inhibitor, single point]

**Q.** With `O=C(NN1C(=O)c2cc(Br)ccc2NC1c1cc(Br)cc(Br)c1O)c1ccncc1` (stereo not drawn) as the molecule, how does the Potency read?
**A.** inconclusive: 56.2 µM [inhibitor, single point]

**Q.** How did the Potency turn out when `CCC(C)NC(=O)c1cc2cc3ccc(OC)cc3nc2s1` (stereo not drawn) was run?
**A.** inconclusive: 28.2 µM [inhibitor, single point]

**Q.** `Cc1ccc(NC(=O)Cc2cn3ccsc3n2)nc1` was tested. Which Potency did it give?
**A.** inconclusive: 89.1 µM [inhibitor, single point]

**Q.** `CCN(CC)c1ccc(-c2n[nH]c(=S)n2-c2ccccc2C)cc1` was tested. Which Potency did it give?
**A.** inconclusive: 15.8 µM [inhibitor, full curve]

**Q.** For `CC1(OC(=O)CCc2ccccc2)C(=O)C=C2C=C3CCCN3C=C2C1=O` (stereo not drawn), which Potency is on record?
**A.** active: 56.2 µM

**Q.** Which Potency does the source give for `O=C1CCCC(=O)N1c1ccc(N2CCN(c3ccccc3)CC2)c([N+](=O)[O-])c1` here?
**A.** inactive

**Q.** For `Cc1ccc(CNC(=O)C2CCN(C(=O)N3CC(C)Oc4ccc(Cl)cc43)CC2)cc1` (stereo not drawn), which Potency is on record?
**A.** inactive

**Q.** `Cc1ccc(S(=O)(=O)N(C)CC(=O)O/N=C(\N)c2ccc([N+](=O)[O-])cc2)cc1` was tested. Which Potency did it give?
**A.** inconclusive: 22.4 µM [inhibitor, partial curve]

**Q.** With `COc1cc2nc(N(CCCN(C)C)C(=O)c3ccc(S(=O)(=O)N(C)C4CCCCC4)cc3)sc2cc1OC` as the molecule, how does the Potency read?
**A.** inactive

**Q.** How did the Potency turn out when `O=C(c1cnccn1)N1CCc2c([nH]c3ccccc23)C1c1cccc(Cl)c1` (stereo not drawn) was run?
**A.** inconclusive: 14.1 µM [inhibitor, full curve, poor fit]

**Q.** For `Cc1cc(C)c(C)c(S(=O)(=O)Nc2ccccc2C(=O)NCCCn2ccnc2)c1C`, which Potency is on record?
**A.** inconclusive: 35.5 µM [inhibitor, full curve, poor fit]

**Q.** How did the Potency turn out when `Cc1ccc(-n2c(C)c([N+](=O)[O-])c3ccc(O)c(CN(C)C)c32)cc1` was run?
**A.** inactive

**Q.** With `O=C(COc1nsnc1N1CCOCC1)N/N=C/c1ccccc1O` as the molecule, how does the Potency read?
**A.** inconclusive: 100 µM [inhibitor, single point]

**Q.** Which Potency does the source give for `Cc1cccc(N=Nc2c(N)n[nH]c2N)c1` here?
**A.** active: 39.8 µM

**Q.** Which Potency does the source give for `COc1ccc(N2CC(C(=O)Nc3nnc(C4CCCCC4)s3)CC2=O)cc1` (stereo not drawn) here?
**A.** inactive

**Q.** For `N#CC1=C(S)N(c2ccccc2)C(c2ccc(-c3cccc(Cl)c3)o2)NC1=O` (stereo not drawn), which Potency is on record?
**A.** inconclusive: 44.7 µM [inhibitor, partial curve]

**Q.** Which Potency does the source give for `COc1ccc(-c2nn(-c3ccccc3)cc2/C=C2/SC(=S)N(CCC(=O)O)C2=O)c(C)c1` here?
**A.** active: 50.1 µM

**Q.** For `COc1ccc(-c2cn3c(n2)sc2cc(C(=O)NCCc4ccccc4)ccc23)cc1`, which Potency is on record?
**A.** inconclusive: 89.1 µM [inhibitor, single point]

**Q.** Which Potency does the source give for `COc1ccc(-c2cn(-c3cccc(C)c3)c(=O)[nH]2)cc1OC` here?
**A.** inconclusive: 100 µM [inhibitor, single point]

**Q.** For `Cc1ccc(C)c(NC(=O)c2cnc(N3CCCC3)nc2C)c1`, which Potency is on record?
**A.** inactive

**Q.** `O=C(CSc1nnc2sc3ccccc3n12)NCc1ccc2c(c1)OCO2` was tested. Which Potency did it give?
**A.** inconclusive: 89.1 µM [inhibitor, single point]

**Q.** `CC(=O)Nc1nc(CC(C)C)cc(-c2ccccc2)c1C#N` was tested. Which Potency did it give?
**A.** inactive

**Q.** Which Potency does the source give for `CCOC(=O)COc1ccc2c3c(c(=O)oc2c1)CCCC3` here?
**A.** inactive

**Q.** For `Cc1[nH]n(-c2ccccc2)c(=O)c1N=Nc1c(O)cc(S(=O)(=O)N(C)C)c2ccccc12`, which Potency is on record?
**A.** active: 7.94 µM

**Q.** Which Potency does the source give for `Cc1ccnc(Sc2ccc([N+](=O)[O-])cc2[N+](=O)[O-])n1` here?
**A.** inconclusive: 50.1 µM [inhibitor, partial curve]

**Q.** `C=C1CCC[C@]2(C)C[C@H]3OC(=O)C(CNC(C)CCCC(C)C)[C@H]3CC12` (stereo partly drawn) was tested. Which Potency did it give?
**A.** inactive

**Q.** How did the Potency turn out when `Cc1ccc(C2Nc3cccc4cccc(c34)N2)s1` was run?
**A.** inconclusive: 89.1 µM [inhibitor, single point]

**Q.** How did the Potency turn out when `COc1cc2nc(NCCc3cccc(C)c3)n3nc(-c4ccccc4)nc3c2cc1OC` was run?
**A.** inactive

**Q.** `Cc1ccc(Cl)cc1N1CCN(C(=O)CSc2ccsc2[N+](=O)[O-])CC1` was tested. Which Potency did it give?
**A.** active: 50.1 µM

**Q.** `COc1ccccc1C(=O)N/C(=C/c1ccco1)C(=O)Nc1cccc(C(=O)O)c1` was tested. Which Potency did it give?
**A.** inconclusive: 79.4 µM [inhibitor, single point]

**Q.** `O=C(O)Cc1ccc(-n2cccc2)cc1` was tested. Which Potency did it give?
**A.** active: 8.91 µM

**Q.** For `CC[n+]1ccc(/C=C2\Sc3ccccc3N2CCCS(=O)(=O)[O-])c2ccccc21`, which Potency is on record?
**A.** active: 50.1 µM

**Q.** For `CN(C)CCOC(=O)C1(c2ccccc2)CCCC1`, which Potency is on record?
**A.** inactive

**Q.** Which Potency does the source give for `O=C(Nc1cccc(C(F)(F)F)c1)c1cccnc1N1CCN(CCO)CC1` here?
**A.** inactive

**Q.** How did the Potency turn out when `O=C(CSc1ccc(-c2ccccc2)nn1)Nc1ccc2c(c1)OCCO2` was run?
**A.** inconclusive: 50.1 µM [inhibitor, partial curve]

**Q.** Which Potency does the source give for `COc1ccc(N2CCN(C(=O)Cc3csc(NC(=O)Nc4ccccc4OC)n3)CC2)cc1` here?
**A.** inconclusive: 20 µM [inhibitor, full curve]

**Q.** `COc1ccc(C2C(C(=O)/C=C/c3ccco3)=C(O)C(=O)N2CCN2CCOCC2)cc1` (stereo not drawn) was tested. Which Potency did it give?
**A.** active: 79.4 µM

**Q.** Which Potency does the source give for `CSc1ncc(C(=O)Nc2cc(C)ccc2C)c(C)n1` here?
**A.** inactive

**Q.** For `CCOc1cc(S(=O)(=O)N(CC)CC)ccc1F`, which Potency is on record?
**A.** inconclusive: 79.4 µM [inhibitor, single point]

**Q.** For `CC1CCCN(c2ccc(C(=O)Nc3cccnc3)cc2[N+](=O)[O-])C1` (stereo not drawn), which Potency is on record?
**A.** inconclusive: 39.8 µM [inhibitor, partial curve]

**Q.** With `O=C1CNC(=O)/C1=C/c1ccc(O)cc1` as the molecule, how does the Potency read?
**A.** inactive

**Q.** `O=C(NCc1ccco1)c1ccc(CS(=O)Cc2cccc(Cl)c2)o1` (stereo not drawn) was tested. Which Potency did it give?
**A.** inactive

**Q.** For `COc1ccc(Cn2c(CO)cnc2SCc2ccccc2)cc1`, which Potency is on record?
**A.** inconclusive: 70.8 µM [inhibitor, single point]

**Q.** With `CC(C)Cn1c(O)c(N=NC(=O)c2cccc(S(=O)(=O)N3CCCCC3)c2)c2ccccc21` as the molecule, how does the Potency read?
**A.** inconclusive: 7.94 µM [inhibitor, full curve]

**Q.** How did the Potency turn out when `O=C(COC(=O)c1n[nH]c2ccccc12)Nc1ccc(Cl)cc1[N+](=O)[O-]` was run?
**A.** inconclusive: 20 µM [inhibitor, full curve, poor fit]

**Q.** `CCN(CC)c1ccc(NC(=O)COC(=O)COc2ccccc2[N+](=O)[O-])cc1` was tested. Which Potency did it give?
**A.** active: 44.7 µM

**Q.** For `CCOC(=O)c1sc(NC(=O)CSc2nc(C)cc(C)n2)c(C#N)c1C`, which Potency is on record?
**A.** inconclusive: 89.1 µM [inhibitor, single point]

**Q.** Which Potency does the source give for `CC1=NOC(=O)/C1=C\c1ccccc1` here?
**A.** inconclusive: 70.8 µM [inhibitor, single point]

**Q.** Which Potency does the source give for `CN(C1=C(NC(=O)c2ccccc2)C(=O)c2ccccc2C1=O)C1CCS(=O)(=O)C1` (stereo not drawn) here?
**A.** active: 50.1 µM

**Q.** `O=C(/C=C/c1cccc2ccccc12)c1ccncc1` was tested. Which Potency did it give?
**A.** inconclusive: 44.7 µM [inhibitor, partial curve]

**Q.** Which Potency does the source give for `Cn1cccc1CNC1CCCCC1` here?
**A.** inactive

**Q.** How did the Potency turn out when `Nn1c(Cc2ccc(Br)cc2)n[nH]c1=S` was run?
**A.** inconclusive: 79.4 µM [inhibitor, single point]

**Q.** Which Potency does the source give for `CC(Nc1oc(-c2ccc(COc3ccccc3)o2)nc1C#N)c1ccccc1` (stereo not drawn) here?
**A.** inconclusive: 79.4 µM [inhibitor, single point]

**Q.** For `COc1ccc(C(CCNCc2ccc(N(C)C)cc2)c2ccccc2OC)cc1` (stereo not drawn), which Potency is on record?
**A.** active: 10 µM

**Q.** `CC(=O)Nc1cc2c(cc1Br)OCCO2` was tested. Which Potency did it give?
**A.** inactive

**Q.** `COc1ccc(CNC(=O)CCS(=O)(=O)c2ccc3c(c2)NC(=O)C(C)S3)cc1` (stereo not drawn) was tested. Which Potency did it give?
**A.** inconclusive: 31.6 µM [inhibitor, single point]

**Q.** How did the Potency turn out when `CC1CC(C)CN(c2cc3c(cc2[N+](=O)[O-])C(=O)N(c2ccccc2)C3=O)C1` (stereo not drawn) was run?
**A.** inconclusive: 39.8 µM [inhibitor, partial curve]

**Q.** For `Cc1cccc(-n2ncc3c(NCCOCCO)ncnc32)c1`, which Potency is on record?
**A.** inactive

**Q.** With `CN1CCCc2cc(C=O)ccc21` as the molecule, how does the Potency read?
**A.** inactive

**Q.** With `Cc1ccc(SCC(=O)c2c(C)nc3cc(C)ccn23)cc1` as the molecule, how does the Potency read?
**A.** inconclusive: 89.1 µM [inhibitor, partial curve]

**Q.** How did the Potency turn out when `CCC(Sc1nnc(-c2ccc(F)cc2)c(-c2ccc(F)cc2)n1)C(=O)NC1CCCC1` (stereo not drawn) was run?
**A.** inactive

**Q.** For `CCOc1ccc(C(c2c(O)cc(C)n(Cc3ccco3)c2=O)N2CCN(C)CC2)cc1` (stereo not drawn), which Potency is on record?
**A.** inactive

**Q.** How did the Potency turn out when `O=C1c2ccccc2NC(c2ccc(F)cc2)N1Cc1ccco1` (stereo not drawn) was run?
**A.** inconclusive: 79.4 µM [inhibitor, single point]

**Q.** For `COc1ccc(S(=O)(=O)NC(C)C(=O)NCc2ccc3c(c2)OCO3)cc1OC` (stereo not drawn), which Potency is on record?
**A.** inactive

**Q.** With `O=C(NCCc1cccs1)c1ccc(Cn2c(SCc3cccc(F)c3)nc3cccnc32)cc1` as the molecule, how does the Potency read?
**A.** inactive

**Q.** With `CC(C#N)Sc1ccc(S(=O)(=O)N2CCCCC2)cn1` (stereo not drawn) as the molecule, how does the Potency read?
**A.** inactive

**Q.** `COCCn1nnnc1CN1CCN(c2cccc(C(F)(F)F)c2)CC1` was tested. Which Potency did it give?
**A.** active: 79.4 µM

**Q.** `CC(=O)N1CCN(c2csc3ccc(Cl)cc3c2=O)CC1` was tested. Which Potency did it give?
**A.** inactive

**Q.** How did the Potency turn out when `Cc1cccc(C(c2sc3nc(-c4ccco4)nn3c2O)N2CCOCC2)c1` (stereo not drawn) was run?
**A.** inactive

**Q.** Which Potency does the source give for `Cc1sc2nc(CSCC(=O)NC(C)(C)C)[nH]c(=O)c2c1C` here?
**A.** inactive

**Q.** `COC(=O)c1scc(-c2ccc(C)cc2)c1S(=O)(=O)Nc1cc(C)c(Cl)cc1OC` was tested. Which Potency did it give?
**A.** inactive

**Q.** Which Potency does the source give for `CCNC(=S)NS(=O)(=O)c1ccc(C)cc1` here?
**A.** inactive
